Measurements: PubChem BioAssay AID1362 (SRMLSC, 2008)
The list shows a part of the results. Further columns of the screen follow, without active or inactive calls. Compounds called inactive in the main read-out are mostly missing here.

assay: growth inhibition of WT strain, primary screen, mitochondrial fusion inhibitor project, WT and mutant strains, chemical genetic (AID 1362); conditions: mitochondrial fusion phenotypic screen, at 10 µM; also: tested in S. cerevisiae

| Structure (SMILES) | inhibition |
| --- | --- |
| O=C(c1cnccn1)N1CCc2c([nH]c3ccccc23)C1c1cccc(Cl)c1 (stereo not given) | 36% |
| CC(CNC(=O)COc1ccccc1)OC(=O)Nc1ccc(Cl)c(Cl)c1 (stereo not given) | 79.2% |
| COc1cccc(NC(=S)NCCC(c2ccccc2)c2ccccc2)c1 | 60% |
| Cn1c(=O)cc(OCCCC(=O)N2CCN(c3ccccc3)CC2)c2ccccc21 | -0.45% |
| COCCN(C(=S)Nc1ccc(C)c(C)c1)C(C)c1ccco1 (stereo not given) | 10.7% |
| CC(=O)Nc1cccc(NC(=O)CSc2nnnn2Cc2ccccc2)c1 | -5.39% |
| Cn1c(=O)c2c(nc(N3CCCCCC3)n2Cc2cccc3ccccc23)n(C)c1=O | 23.2% |
| C=CCn1c(O)c(C2=c3ccccc3=NC2=O)sc1=Nc1ccc(O)cc1 | 59% |
| CN1CCN(c2nc(NCCOC34CC5CC(CC(C5)C3)C4)nc(OCC(F)(F)F)n2)CC1 | 34.5% |
| O=C(Nc1ccccc1)OC1CCC2CC1CCC2OC(=O)Nc1ccccc1 (stereo not given) | 34.6% |
| CCOc1ccc(NC(=S)NN(C)C(=S)Nc2ccc(OCC)cc2)cc1 | 3.29% |
| CC1=C/C(=N\NC(=S)NCCc2ccccc2)CC(C)(C)C1 | 64.6% |
| COc1ccc(Cl)cc1C(=O)CSc1nnnn1C1CCCCC1 | 43.3% |
| C=CCn1c(SCc2csc(C)n2)nc2sc3c(c2c1=O)CCCC3 | 32.7% |
| CCOc1ccccc1NC(=O)C(NCC1CCCCC1)c1ccccc1 (stereo not given) | -3.31% |
| CCc1ccccc1NC(=S)NCCSc1ccc(Cl)cc1 | 60.8% |
| O=C(c1ccc(COc2ccc(Cl)cc2)cc1)N1CCCCC1 | 47.7% |
| CCCCc1ccc(NC(=S)NCCc2ccc(F)cc2)cc1 | 55% |
| CCCCSc1cnn(-c2ccccc2)c(=O)c1SCCCC | 5.26% |
| Cc1csc(NC(=O)c2cc(-c3ccccc3)nc3ccccc23)n1 | 34.3% |
| Cc1cccc(OCc2n[nH]c(=S)n2C2CCCCC2)c1 | 38.7% |
| O=C(NCc1ccco1)c1cccnc1-c1nc2ccccc2s1 | 12.4% |
| CCOC(=O)c1cnc2ccc(OCC)cc2c1N1CCN(c2ccccc2OC)CC1 | 38.3% |
| CC1CCc2c(C(=O)Oc3cccc(-n4cnnn4)c3)csc2C1 (stereo not given) | 21.9% |
| CC(C)c1ccc(NC(=S)NCc2ccc3c(c2)OCO3)cc1 | 29.4% |
| CSc1nc2ccc(NS(=O)(=O)c3cccc(Cl)c3Cl)cc2s1 | 52.3% |
| O=C(CN1CCN(c2ncc(C(F)(F)F)cc2Cl)CC1)N1CCN(c2ncc(C(F)(F)F)cc2Cl)CC1 | 64.3% |
| N#C/C(=C\c1cccc(NC(=O)c2ccccc2Cl)c1)C(=O)NCCc1ccccc1 | 22.7% |
| Cc1ccsc1C(=O)OCc1csc(-c2ccccc2)n1 | 51.7% |
| CN(C)c1cc[n+](CC(=O)Nc2ccc(Oc3ccccc3)cc2)cc1 | 74.4% |
